# In PMC5681660, “Reduced hepatitis B and D viral entry using clinically applied drugs as novel inhibitors of the bile acid transporter NTCP” (Scientific Reports, 2017):
# Counter-ions that a name gives are not always drawn.
# Biological target: T1, human NTCP (Homo sapiens, UniProt Q14973)
# T1 sequence (Q14973 1-349): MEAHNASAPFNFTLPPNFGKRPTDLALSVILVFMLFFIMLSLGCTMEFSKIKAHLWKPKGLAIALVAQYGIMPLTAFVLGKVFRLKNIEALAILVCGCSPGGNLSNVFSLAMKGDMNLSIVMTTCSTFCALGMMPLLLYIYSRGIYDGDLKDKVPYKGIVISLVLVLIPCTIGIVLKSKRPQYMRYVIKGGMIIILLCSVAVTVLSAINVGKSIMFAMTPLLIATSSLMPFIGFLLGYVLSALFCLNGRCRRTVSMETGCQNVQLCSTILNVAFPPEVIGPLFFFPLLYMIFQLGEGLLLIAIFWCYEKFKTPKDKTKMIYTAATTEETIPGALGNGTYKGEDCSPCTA
# Test: Screening taurocholate uptake assay (96-well, [14C]taurocholate, 10 µM drug)
# Details: not given
row,SMILES,%NTCP activity
1,c1coc(CNc2ncnc3nc[nH]c23)c1 [6-Furfurylaminopurine],100.035%
2,COc1ccc(CN2CCN(C(c3ccc(F)cc3)c3ccc(F)cc3)CC2)c(OC)c1OC.Cl.Cl [Lomerizine hydrochloride],101.368%

# Same assay, conditions: 10 min, read-out: %NTCP activity
row,SMILES,remaining activity at 10 µM
1,Cc1onc(-c2c(F)cccc2Cl)c1C(=O)N[C@@H]1C(=O)N2[C@@H]1SC(C)(C)[C@@H]2C(=O)O [Flucloxacillin sodium],112%
2,CCOc1ccc(NC(C)=O)cc1 [Phenacetin],83.5%
3,CCN(CC)CCOCCOC(=O)C1(c2ccccc2)CCCC1 [Carbetapentane citrate],85.8%
4,Cc1c(N)c(=O)n(-c2ccccc2)n1C [Ampyrone],95.4%
5,CO/N=C(\C(=O)N[C@@H]1C(=O)N2C(C(=O)O)=C(COC(C)=O)CS[C@H]12)c1csc(N)n1 [Cefotaxime sodium salt],114%
6,CN1CCC(=C2c3ccccc3C=Cc3ccccc32)CC1 [Cyproheptadine hydrochloride],59.2%
7,C[C@]12C=CC(=O)C=C1CC[C@H]1[C@@H]3C[C@@H](O)[C@](O)(C(=O)CO)[C@@]3(C)C[C@H](O)[C@@]12F [Triamcinolone],63.5%
8,CC(C)OC(=O)CCC/C=C\C[C@@H]1[C@@H](CC[C@@H](O)CCc2ccccc2)[C@H](O)C[C@@H]1O [Latanoprost],93.2%
9,CC(N)C(O)c1ccccc1 (stereo not shown) [Phenylpropanolamine hydrochloride],57.8%
10,CC1=NS(=O)(=O)c2cc(Cl)ccc2N1 [Diazoxide],23%
11,CC(=O)CCCCn1c(=O)c2c(ncn2C)n(C)c1=O [Pentoxifylline],91.8%
12,COc1ccc(NS(=O)(=O)c2ccc(N)cc2)nn1 [Sulfamethoxypyridazine],75.2%
13,CCCCC[C@H](O)/C=C/[C@@H]1[C@@H](C/C=C\CCCC(=O)O)[C@@H](O)C[C@H]1O [Dinoprost trometamol],42.3%
14,Nc1ncnc2c1ncn2[C@@H]1O[C@H](CO)[C@@H](O)[C@@H]1O [Vidarabine],79.6%
15,CC(=O)[C@H]1CC[C@H]2[C@@H]3C=CC4=CC(=O)CC[C@@]4(C)[C@@H]3CC[C@]12C [Dydrogesterone],97.9%
16,C[C@]12C[C@H](O)[C@H]3[C@@H](CCC4=CC(=O)CC[C@@]43C)[C@@H]1CC[C@@H]2C(=O)CO [Corticosterone],65.1%
17,C/C(=C(\CCOP(=O)(O)O)SC(=O)c1ccccc1)N(C=O)Cc1cnc(C)nc1N [Benfotiamine],70.1%
18,NCCc1cc[nH]n1 [Betazole hydrochloride],161%
19,CCCNCC(O)COc1ccccc1C(=O)CCc1ccccc1 (stereo not shown) [Propafenone hydrochloride],27.9%

row,SMILES,remaining activity at 10 µM
1,CN(C)CCC=C1c2ccccc2COc2ccccc21 [Doxepin hydrochloride],65.2%
2,CN1CCCC(CC2c3ccccc3Sc3ccccc32)C1 (stereo not shown) [Metixene hydrochloride],67.6%
3,O=c1[nH]c(=O)n([C@H]2C[C@H](O)[C@@H](CO)O2)cc1F [Floxuridine],84.1%
4,CCOC(=O)[C@H](CCc1ccccc1)N[C@@H](C)C(=O)N1CCC[C@H]1C(=O)O [Enalapril maleate],52.5%
5,O=P(O)(O)C(O)(Cn1ccnc1)P(=O)(O)O [Zoledronic acid hydrate],93.7%
6,COc1nc(C)nc(Cl)c1N=C1NCCN1 [Moxonidine],69.7%
7,CN1CCC(=C2c3ccccc3CCc3cccnc32)CC1 [Azatadine maleate],115%
8,C[C@H]1c2cccc(O)c2C(=O)C2=C(O)[C@]3(O)C(=O)C(C(N)=O)=C(O)[C@@H](N(C)C)[C@@H]3[C@@H](O)[C@@H]21 [Doxycycline hydrochloride],93.1%
9,O=C(N[C@H](CO)[C@H](O)c1ccc([N+](=O)[O-])cc1)C(Cl)Cl [Chloramphenicol],138%
10,COc1ccc2[nH]cc(CCNC(C)=O)c2c1 [Melatonin],63.6%
11,CCN(CC)CCNC(=O)c1cc(Br)c(N)cc1OC [Bromopride],105%
12,Cc1nnc(NS(=O)(=O)c2ccc(N)cc2)s1 [Sulfamethizole],107%
13,C[C@H]1C[C@H]2[C@@H]3CCC4=CC(=O)C=C[C@]4(C)[C@@]3(F)[C@@H](O)C[C@]2(C)[C@@]1(O)C(=O)CO [Betamethasone],81%
14,COC(=O)[C@H]1[C@H]2C[C@@H]3c4[nH]c5cc(OC)ccc5c4CCN3C[C@H]2C[C@@H](OC(=O)c2cc(OC)c(OC)c(OC)c2)[C@@H]1OC [Reserpine],118%
15,CC(C)(C#N)c1cc(Cn2cncn2)cc(C(C)(C)C#N)c1 [Anastrozole],91.7%
16,Cc1ccnc2c1NC(=O)c1cccnc1N2C1CC1 [Nevirapine],77.2%
17,CN1CCN(CC(=O)N2c3ccccc3C(=O)Nc3cccnc32)CC1 [Pirenzepine dihydrochloride],111%
18,CC(=O)N[C@@H](CC(=O)N[C@@H](CCC(=O)O)C(=O)O)C(=O)O [Spaglumic acid],103%
19,Cn1c(=O)c2c(ncn2CC(O)CO)n(C)c1=O (stereo not shown) [Diprophylline],148%

# Same assay, conditions: Prestwick library screen, 10 µM drug, [14C]taurocholate uptake
row,SMILES,%NTCP activity
1,"C[C@@]1(O)CCOC(=O)C1 [Mevalonic-D, L acid lactone]",104.706%

# Same assay, conditions: Prestwick library screen, [14C]taurocholate uptake, 10 µM drug
row,SMILES,%NTCP activity
1,Cc1cc(C)nc([N-]S(=O)(=O)c2ccc(N)cc2)n1.[Na+] [Sulfamethazine sodium salt],72.166%
2,CNCCC=C1c2ccccc2C=Cc2ccccc21 [Norcyclobenzaprine],75.4045%

# Same assay, conditions: screen, 10 µM drug, [14C]taurocholate uptake
row,SMILES,%NTCP activity
1,CC(=O)c1ccc2c(c1)N(CCCN(C)C)c1ccccc1S2.O=C(O)/C=C\C(=O)O [Acetopromazine maleate salt],120.852%

# Biological target: T1, human NTCP
# Test: Screening fluorescent competitive Myrcludex B-FITC binding assay (96-well, 10 µM drug)
# Details: 0.5 h, read-out: %NTCP binding
row,SMILES,remaining activity at 10 µM
1,Cc1onc(-c2c(F)cccc2Cl)c1C(=O)N[C@@H]1C(=O)N2[C@@H]1SC(C)(C)[C@@H]2C(=O)O [Flucloxacillin sodium],98.8%
2,CCOc1ccc(NC(C)=O)cc1 [Phenacetin],82.1%
3,CCN(CC)CCOCCOC(=O)C1(c2ccccc2)CCCC1 [Carbetapentane citrate],76.4%
4,Cc1c(N)c(=O)n(-c2ccccc2)n1C [Ampyrone],89.5%
5,CO/N=C(\C(=O)N[C@@H]1C(=O)N2C(C(=O)O)=C(COC(C)=O)CS[C@H]12)c1csc(N)n1 [Cefotaxime sodium salt],73.6%
6,CN1CCC(=C2c3ccccc3C=Cc3ccccc32)CC1 [Cyproheptadine hydrochloride],92.1%
7,C[C@]12C=CC(=O)C=C1CC[C@H]1[C@@H]3C[C@@H](O)[C@](O)(C(=O)CO)[C@@]3(C)C[C@H](O)[C@@]12F [Triamcinolone],81.8%
8,CC(C)OC(=O)CCC/C=C\C[C@@H]1[C@@H](CC[C@@H](O)CCc2ccccc2)[C@H](O)C[C@@H]1O [Latanoprost],42.5%
9,CC(N)C(O)c1ccccc1 (stereo not shown) [Phenylpropanolamine hydrochloride],65.5%
10,CC1=NS(=O)(=O)c2cc(Cl)ccc2N1 [Diazoxide],73.9%
11,CC(=O)CCCCn1c(=O)c2c(ncn2C)n(C)c1=O [Pentoxifylline],50.2%
12,COc1ccc(NS(=O)(=O)c2ccc(N)cc2)nn1 [Sulfamethoxypyridazine],110%
13,CCCCC[C@H](O)/C=C/[C@@H]1[C@@H](C/C=C\CCCC(=O)O)[C@@H](O)C[C@H]1O [Dinoprost trometamol],55%
14,Nc1ncnc2c1ncn2[C@@H]1O[C@H](CO)[C@@H](O)[C@@H]1O [Vidarabine],92.3%
15,CC(=O)[C@H]1CC[C@H]2[C@@H]3C=CC4=CC(=O)CC[C@@]4(C)[C@@H]3CC[C@]12C [Dydrogesterone],84.5%
16,C[C@]12C[C@H](O)[C@H]3[C@@H](CCC4=CC(=O)CC[C@@]43C)[C@@H]1CC[C@@H]2C(=O)CO [Corticosterone],46.2%
17,C/C(=C(\CCOP(=O)(O)O)SC(=O)c1ccccc1)N(C=O)Cc1cnc(C)nc1N [Benfotiamine],83.2%
18,NCCc1cc[nH]n1 [Betazole hydrochloride],115%
19,CCCNCC(O)COc1ccccc1C(=O)CCc1ccccc1 (stereo not shown) [Propafenone hydrochloride],72.4%

row,SMILES,remaining activity at 10 µM
1,CN(C)CCC=C1c2ccccc2COc2ccccc21 [Doxepin hydrochloride],87.6%
2,CN1CCCC(CC2c3ccccc3Sc3ccccc32)C1 (stereo not shown) [Metixene hydrochloride],76.5%
3,O=c1[nH]c(=O)n([C@H]2C[C@H](O)[C@@H](CO)O2)cc1F [Floxuridine],103%
4,CCOC(=O)[C@H](CCc1ccccc1)N[C@@H](C)C(=O)N1CCC[C@H]1C(=O)O [Enalapril maleate],71%
5,O=P(O)(O)C(O)(Cn1ccnc1)P(=O)(O)O [Zoledronic acid hydrate],34.1%
6,COc1nc(C)nc(Cl)c1N=C1NCCN1 [Moxonidine],93.9%
7,CN1CCC(=C2c3ccccc3CCc3cccnc32)CC1 [Azatadine maleate],72.5%
8,C[C@H]1c2cccc(O)c2C(=O)C2=C(O)[C@]3(O)C(=O)C(C(N)=O)=C(O)[C@@H](N(C)C)[C@@H]3[C@@H](O)[C@@H]21 [Doxycycline hydrochloride],76.3%
9,O=C(N[C@H](CO)[C@H](O)c1ccc([N+](=O)[O-])cc1)C(Cl)Cl [Chloramphenicol],106%
10,COc1ccc2[nH]cc(CCNC(C)=O)c2c1 [Melatonin],76.6%
11,CCN(CC)CCNC(=O)c1cc(Br)c(N)cc1OC [Bromopride],90.4%
12,Cc1nnc(NS(=O)(=O)c2ccc(N)cc2)s1 [Sulfamethizole],130%
13,C[C@H]1C[C@H]2[C@@H]3CCC4=CC(=O)C=C[C@]4(C)[C@@]3(F)[C@@H](O)C[C@]2(C)[C@@]1(O)C(=O)CO [Betamethasone],64.4%
14,COC(=O)[C@H]1[C@H]2C[C@@H]3c4[nH]c5cc(OC)ccc5c4CCN3C[C@H]2C[C@@H](OC(=O)c2cc(OC)c(OC)c(OC)c2)[C@@H]1OC [Reserpine],71.6%
15,CC(C)(C#N)c1cc(Cn2cncn2)cc(C(C)(C)C#N)c1 [Anastrozole],88.7%
16,Cc1ccnc2c1NC(=O)c1cccnc1N2C1CC1 [Nevirapine],102%
17,CN1CCN(CC(=O)N2c3ccccc3C(=O)Nc3cccnc32)CC1 [Pirenzepine dihydrochloride],79.6%
18,CC(=O)N[C@@H](CC(=O)N[C@@H](CCC(=O)O)C(=O)O)C(=O)O [Spaglumic acid],100%
19,Cn1c(=O)c2c(ncn2CC(O)CO)n(C)c1=O (stereo not shown) [Diprophylline],110%

# Same assay, conditions: Prestwick library screen, 10 µM drug, Myrcludex B-FITC binding
row,SMILES,%NTCP binding
1,"C[C@@]1(O)CCOC(=O)C1 [Mevalonic-D, L acid lactone]",107.782%

# Same assay, conditions: Prestwick library screen, Myrcludex B-FITC binding, 10 µM drug
row,SMILES,%NTCP binding
1,Cc1cc(C)nc([N-]S(=O)(=O)c2ccc(N)cc2)n1.[Na+] [Sulfamethazine sodium salt],92.5333%
2,c1coc(CNc2ncnc3nc[nH]c23)c1 [6-Furfurylaminopurine],78.2733%
3,CNCCC=C1c2ccccc2C=Cc2ccccc21 [Norcyclobenzaprine],78.2094%

# Same assay, conditions: screen, 10 µM drug, Myrcludex B-FITC binding
row,SMILES,%NTCP binding
1,CC(=O)c1ccc2c(c1)N(CCCN(C)C)c1ccccc1S2.O=C(O)/C=C\C(=O)O [Acetopromazine maleate salt],71.3376%
2,COc1ccc(CN2CCN(C(c3ccc(F)cc3)c3ccc(F)cc3)CC2)c(OC)c1OC.Cl.Cl [Lomerizine hydrochloride],52.918%
